Among the data in PubChem BioAssay AID1117361 (Southern Research Institute, 2015) are IC50 values, retold here.

By IC50 is commonly meant the point on the concentration scale where inhibition reaches its midpoint.

Some entries of the source have several records that differ or are many. This is not the full list of results. There may be further records. Results that share an entry are repeats across runs, samples, wells, individuals or studies. A tag in brackets gives the origin of a value. Letters hold for one entry only.

The target in this test is Protein Tat (Human immunodeficiency virus type 1 group M subtype B (isolate HXB2)) (UniProt P04608). Briefly: inhibitors of Tat binding to TAR RNA, dose response, counter-screen for Vif-APOBEC3G degradation inhibitor project, biochemical, fluorescence polarization, FAM-labeled TAR RNA (AID 1117361). (The purpose of a counterscreen is to sort out artefacts and off-target activity.)
Sequence of UniProt P04608 (P04608 whole entry, looked up): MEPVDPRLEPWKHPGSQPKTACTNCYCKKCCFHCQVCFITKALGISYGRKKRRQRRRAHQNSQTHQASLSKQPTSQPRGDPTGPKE

In the case of `Clc1ccccc1CSc1nnc(-c2ccco2)c(-c2ccco2)n1`, the IC50 was 2.08 µM [sample A] and 99 µM [sample B].
